From paper PMC4742622
No constants are given. Whether binding was seen depends on the method and setting. Binding seen in cells or lysates may run through a third protein. Some binding calls cover weakened binding; strength is not graded here.

Protein sequences, listed by entry. Tags and fused reporters are not part of them. Lines headed by an entry give the natural chain unless they say otherwise; changes in a name come on top.
UniProt P40763: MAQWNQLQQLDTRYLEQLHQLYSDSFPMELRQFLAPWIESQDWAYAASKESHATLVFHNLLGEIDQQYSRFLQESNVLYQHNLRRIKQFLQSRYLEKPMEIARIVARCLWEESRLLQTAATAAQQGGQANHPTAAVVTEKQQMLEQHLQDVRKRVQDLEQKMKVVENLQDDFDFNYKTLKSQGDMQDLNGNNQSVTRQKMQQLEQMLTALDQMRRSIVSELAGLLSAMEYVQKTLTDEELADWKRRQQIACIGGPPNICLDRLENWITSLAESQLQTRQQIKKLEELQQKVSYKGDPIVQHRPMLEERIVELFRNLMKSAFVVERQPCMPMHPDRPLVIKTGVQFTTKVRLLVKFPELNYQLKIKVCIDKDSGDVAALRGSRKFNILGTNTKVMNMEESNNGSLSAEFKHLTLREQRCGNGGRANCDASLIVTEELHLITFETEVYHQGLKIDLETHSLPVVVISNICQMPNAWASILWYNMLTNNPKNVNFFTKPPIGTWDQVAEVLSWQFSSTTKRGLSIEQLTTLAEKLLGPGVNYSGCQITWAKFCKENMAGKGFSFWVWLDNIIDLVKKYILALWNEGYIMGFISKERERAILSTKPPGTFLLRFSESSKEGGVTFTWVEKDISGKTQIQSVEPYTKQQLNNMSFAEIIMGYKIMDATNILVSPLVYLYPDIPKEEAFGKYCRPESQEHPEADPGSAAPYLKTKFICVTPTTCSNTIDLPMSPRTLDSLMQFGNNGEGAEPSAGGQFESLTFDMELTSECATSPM
UniProt Q01196: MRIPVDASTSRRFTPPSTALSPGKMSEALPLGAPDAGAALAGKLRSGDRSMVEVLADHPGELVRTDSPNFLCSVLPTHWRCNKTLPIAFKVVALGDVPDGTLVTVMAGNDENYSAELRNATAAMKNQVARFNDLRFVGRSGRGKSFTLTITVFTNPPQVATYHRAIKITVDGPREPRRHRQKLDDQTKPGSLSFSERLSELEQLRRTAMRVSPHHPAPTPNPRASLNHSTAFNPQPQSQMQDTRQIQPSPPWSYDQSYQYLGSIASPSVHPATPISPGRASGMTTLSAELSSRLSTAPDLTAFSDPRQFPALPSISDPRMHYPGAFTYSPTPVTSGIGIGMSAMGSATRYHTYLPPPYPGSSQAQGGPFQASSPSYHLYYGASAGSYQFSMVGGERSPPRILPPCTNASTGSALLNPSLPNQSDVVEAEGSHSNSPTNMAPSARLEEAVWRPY

molecular target: GFP-tagged FLAGHA-STAT3 (UniProt P40763); test: co-IP; GFP beads on lysates of cells overexpressing the constructs ('GFP-pulldown assay'), western blot; HEK293T stated for Figure 5a and 5b, cells not stated for 5e, 5f, 5h

Substance | binding
RUNX1^R174Q (from UniProt Q01196 1-453) | binds
RUNX1^Y260X (from UniProt Q01196 1-259) (domain or fragment) | binds
RUNX1 Runt domain alone (from UniProt Q01196 50-178) (domain or fragment) | binds
RUNX1 (overexpressed, full-length) (from UniProt Q01196 1-453) | binds

molecular target: EGFP-tagged RUNX1 (UniProt Q01196); test: as above

Substance | binding
STAT3^1-600 (from UniProt P40763 1-600) (domain or fragment) | binds
STAT3^1-309 (from UniProt P40763 1-309) (domain or fragment) | no binding
endogenous STAT3 (HEK293T) (from UniProt P40763 1-770) | binds
STAT3^1-514 (from UniProt P40763 1-514) (domain or fragment) | binds

molecular target: endogenous STAT3 (Jurkat) (human (endogenous in Jurkat)) (UniProt P40763); test: co-IP; endogenous proteins, Jurkat cell lysates, immunoprecipitated with the indicated antibodies, western blot

Substance | binding
endogenous RUNX1 (Jurkat) (from UniProt Q01196 1-453) | binds
